Test results taken from the supplement of paper PMC9334596.
“And” between values parts separate entries of the source, which are not always exact repeats. Equal entries are not always repeated. The full ranking holds about 5,300 compounds; the median of “PER2::LUC luminescence relative to vehicle control” is about 0.96, and the highest 2% start at about 1.3. This is one part of the list.

System: mPer2Luc MEF
Assay: PER2::LUC luminescence relative to vehicle control (fold of vehicle); higher = higher PER2::LUC reporter signal
Conditions: 10 µM
Outline: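 In 384-well plates, ~3000 mPer2Luc reporter mouse embryonic fibroblasts per well were cultured in DMEM with 10% FBS at 37 °C and 5% CO2 for 48 h before compounds from commercial libraries were added at 10 μM. ONE-Glo luciferase readings were taken 24 h and 30 h after treatment. Each value is PER2::LUC luminescence given as fold of vehicle control.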

Compound | PER2::LUC luminescence (time after treatment 24 h) | PER2::LUC luminescence (time after treatment 30 h)
CN(C(=O)CNC(=O)[C@@H](CC[S+](C)[O-])NC(=O)[C@@H](N)Cc1ccc(O)cc1)[C@H](CO)Cc1ccccc1 (stereo not given in full) | 1.01 | 0.865
CC(C)=CCCC1(C)C=Cc2c(O)c3c(c(CC=C(C)C)c2O1)OC12C(CC4CC1C(C)(C)OC2(C/C=C(/C)C(=O)O)C4O)C3=O (stereo not given) | 0.822 | 1.03
CCCN(CCC)CCc1c[nH]c2ccc(C(N)=O)cc12 | 1.08 and 0.996 | 0.893 and 0.932
C[C@H]1CCCC(=O)CCC/C=C/c2cc(O)cc(O)c2C(=O)O1 | 0.967 | 1.03
CN1Cc2ccccc2[C@@H]2c3cccc4[nH]cc(c34)C[C@H]21 | 0.985 | 0.823
O=C(N[C@H]1CN2CCC1CC2)c1ccc(Cl)cc1 | 0.933 | 0.872
O=[N+]([O-])c1ccc2nc(N3CCNCC3)ccc2c1 | 0.993 and 0.677 | 0.966 and 0.716
C=C[C@H]1CN2CC[C@H]1C[C@H]2[C@H](OC(=O)OCC)c1ccnc2ccc(OC)cc12 | 0.868 and 0.922 | 0.903 and 0.845
CC(C)[C@@H]1NC(=O)[C@H](C)OC(=O)[C@@H](C(C)C)NC(=O)[C@@H](C(C)C)OC(=O)[C@H](C(C)C)NC(=O)[C@H](C)OC(=O)[C@@H](C(C)C)NC(=O)[C@@H](C(C)C)OC(=O)[C@H](C(C)C)NC(=O)[C@H](C)OC(=O)[C@@H](C(C)C)NC(=O)[C@@H](C(C)C)OC1=O | 0.238 | 0.28
CC1(C)C(=O)N(c2ccc(C#N)c(C(F)(F)F)c2)C(=S)N1c1ccc(C(N)=O)c(F)c1 | 1.06 | 1.11
C[C@]12CC[C@H]3[C@@H](CCC4=CC(=O)CC[C@@H]43)[C@@H]1CC[C@@H]2O | 0.951 and 0.973 | 1.02 and 0.875
C=CC[C@]1(O)CC[C@H]2[C@@H]3CCC4=CCCC[C@@H]4[C@H]3CC[C@@]21C | 1.24 | 1.24
C[C@H](N)Cc1cnc[nH]1 | 0.983 | 1.02
CC12CCC3C(CCC4=C(O)C(=O)CCC43C)C1CCC2=O (stereo not given) | 1.09 | 1.1
Cc1cc(O)ccc1Cl | 1.06 and 1.05 | 1.07
c1ccc(CCCCN2CCC(c3ccccc3)CC2)cc1 | 0.938 | 0.724
C=C(C)[C@H]1CN[C@H](C(=O)O)[C@H]1CC(=O)O | 1.06 | 1.16
CCCC(=O)O[C@@H]1[C@@H](C)[C@@]2(O)[C@@H](C=C(CO)C[C@]3(O)C(=O)C(C)=C[C@@H]23)[C@@H]2C(C)(C)[C@]12OC(=O)CCC | 1.13 | 0.899
CC(=O)O[C@H]1C[C@@H](OC(C)=O)C(C)(C)C2C[C@@H](OC(C)=O)[C@]3(C)C(CC[C@@]4(C)[C@H](c5ccoc5)C(=O)[C@H]5O[C@]543)[C@]21C (stereo not given in full) | 0.843 | 0.847
N[C@@H](Cn1ccc(=O)[nH]c1=O)C(=O)O | 1.08 | 0.995
C[C@@H]1CC[C@@]2(OC1)O[C@H]1[C@@H](O)[C@H]3[C@@H]4CC[C@H]5C[C@@H](O[C@@H]6O[C@H](CO)[C@H](O[C@@H]7O[C@H](CO)[C@@H](O)[C@H](O[C@@H]8OC[C@@H](O)[C@H](O)[C@H]8O)[C@H]7O[C@@H]7O[C@H](CO)[C@H](O)[C@H](O[C@@H]8O[C@H](CO)[C@@H](O)[C@H](O)[C@H]8O)[C@H]7O)[C@H](O)[C@H]6O)[C@H](O)C[C@]5(C)[C@H]4CC[C@]3(C)[C@H]1[C@@H]2C | 0.913 | 1.01
CN1[C@@H]2CC[C@H]1C[C@@H](OC(=O)[C@H](CO)c1ccccc1)C2 | 1.01 and 0.833 | 0.999 and 0.898
Cc1ccc(-c2nc3ccc(C)cn3c2CC(=O)N(C)C)cc1 | 0.474 and 1.21 | 0.954 and 0.98
Nc1nc(N)nc(NC2CC2)n1 | 1.11 | 0.84
CN(C)CCN(C)CCc1ccc(Cl)c(Cl)c1 | 0.82 and 0.866 | 0.818 and 0.766

Compound | PER2::LUC luminescence (time after treatment 24 h) | PER2::LUC luminescence (time after treatment 30 h)
C[C@]12CC[C@H](O)C[C@H]1CC[C@@H]1[C@@H]2CC[C@]2(C)[C@@H](c3ccc(=O)oc3)CC[C@]12O | 1.14 | 0.987
C[N+]1([O-])[C@@H]2CC(OC(=O)[C@H](CO)c3ccccc3)C[C@H]1[C@@H]1O[C@@H]12 (single isomer, unassigned; (-)) | 0.991 | 1.04
C[C@H](N)CN1CCc2ccc(Br)cc21 | 0.914 | 0.752
C[C@H]1O[C@H](O[C@H]2[C@H](O)[C@@H](O)[C@@H](O)[C@H](O)[C@@H]2O)[C@@H](N)C[C@@H]1NC(=N)C(=O)O | 0.926 | 0.941
O=[N+]([O-])c1cc(O)c(O)c([N+](=O)[O-])c1 | 1.04 | 0.763
O=C(O)Cc1cccnc1C(=O)O | 0.972 | 0.93
CN[C@@H]1C[C@@H](c2ccc(Cl)c(Cl)c2)c2ccccc21 | 0.87 | 0.694
C[C@H]([C@H](O)CCC(C)(C)O)[C@H]1CC[C@@]2(O)C3=CC(=O)[C@@H]4C[C@@H](O)[C@@H](O)C[C@]4(C)[C@H]3CC[C@]12C | 1.03 | 0.998
C=CCN1C[C@H](C)N([C@H](c2ccc(C(=O)N(CC)CC)cc2)c2cccc(OC)c2)C[C@H]1C | 0.99 | 0.848
O=[N+]([O-])O[C@@H]1CO[C@H]2[C@@H]1OC[C@@H]2O | 0.923 | 0.883
NC(=O)c1ccc(N)nc1 | 0.987 | 0.959
N[C@@H](Cc1ccc(N(CCCl)CCCl)cc1)C(=O)O | 0.566 | 0.521
CCN1C[C@]2(C)CC[C@H](OC)[C@@]34C1[C@]1(OCO[C@@]15C[C@H](OC)[C@H]1C[C@]3(O)[C@@H]5[C@H]1OC)[C@@H](OC(C)=O)[C@H]24 | 1.01 | 1.05
CC(C)=CCOc1c2occc2cc2ccc(=O)oc12 | 1.07 | 1.1
CC(C)N(CCC(C(N)=O)(c1ccccc1)c1ccccn1)C(C)C (stereo not given) | 1.06 and 0.901 | 0.992 and 0.862
C[C@H](N)[C@H](O)c1ccc(O)c(O)c1 | 1.01 and 0.781 | 1.02 and 0.965
N=C(N)NN | 0.909 and 0.978 and 0.964 | 1.12 and 0.99 and 0.867
CC(CCc1ccccc1)NC(C)C(O)c1ccc(O)cc1 (stereo not given) | 0.896 | 0.948
COc1cccc(C2(O)CCCCC2CN(C)C)c1 (stereo not given) | 1.03 and 0.55 | 1.02 and 0.955
CC(=O)OC1CN2CCC1CC2 (stereo not given) | 1 and 1.07 | 1.08 and 1
Cc1c(C(=O)c2cccc3ccccc23)c2cccc3c2n1[C@H](CN1CCOCC1)CO3 | 0.977 | 0.838
NC(=O)CN1C[C@H](O)CC1=O | 1.04 | 0.988
O=C(O)CNC(=O)c1c(O)c2ccccc2n(Cc2ccccc2)c1=O | 1 | 0.971
CCN(CC)C(=O)NC1C=C2c3cccc4[nH]cc(c34)CC2N(C)C1 (stereo not given) | 0.813 | 0.856
c1ccc2nc(N3CCNCC3)ccc2c1 | 0.463 and 0.642 | 0.845 and 0.652

Compound | PER2::LUC luminescence (time after treatment 24 h) | PER2::LUC luminescence (time after treatment 30 h)
C[N+](C)(C)CCCCCCCCCC[N+](C)(C)C | 1.07 and 1.03 | 0.977 and 0.832
C=C(C)c1cc2cc(C(C)=O)c(O)cc2o1 | 1.31 | 1.39
Cc1cc(OC(=O)N2CCCCC2)c(C(C)C)cc1[N+](C)(C)C | 0.966 | 0.919
CC1C2Cc3ccc(O)cc3C1(C)CCN2CC1CC1 (single isomer, unassigned; (+)) | 0.923 | 0.817
C[C@]12CC[C@H](O)C[C@H]1CC[C@@H]1[C@@H]2CC[C@]2(C)[C@@](O)(c3ccoc3)CC[C@]12O | 1.03 | 0.965
CN1C[C@H](C(=O)N[C@]2(C)O[C@@]3(O)[C@@H]4CCCN4C(=O)[C@H](Cc4ccccc4)N3C2=O)C[C@@H]2c3cccc4[nH]cc(c34)C[C@H]21 | 0.791 and 0.71 | 0.733 and 0.71
O=C1NCN(c2ccccc2)C12CCN(CC1COc3ccccc3O1)CC2 (stereo not given) | 1.07 | 0.997
C[N+]1(C)[C@@H]2CC[C@H]1C[C@@H](OC(=O)C(CO)c1ccccc1)C2 (stereo not given in full) | 1.1 and 1.04 and 0.958 | 0.994 and 1.02 and 0.907
C/C=C1/C[C@@H](C)[C@@](C)(O)C(=O)OCC2=CCN3CC[C@@H](OC1=O)[C@@H]23 | 1.08 | 1.07
CN1c2ccccc2C(NCCCCCCC(=O)O)c2ccc(Cl)cc2S1(=O)=O (stereo not given) | 1.05 | 1.09
COc1ccc2[nH]cc(CCNCc3ccc(Br)cc3)c2c1 | 0.772 | 0.692
Clc1cccc(N2CCNCC2)c1 | 0.821 | 0.77
NC(CCP(=O)(O)O)C(=O)O (racemic) | 1.05 | 0.951
COc1ccc(C(C)(C)C)cc1CN[C@H]1C2CCN(CC2)[C@H]1C(c1ccccc1)c1ccccc1 | 0.868 | 0.939
C#C[C@]1(O)CC[C@H]2[C@@H]3CCC4=Cc5nc6nc7ccccc7n6cc5C[C@]4(C)[C@H]3CC[C@@]21C | 1.05 | 1.15
NCCc1cc(O)c(O)cc1O | 0.91 | 0.95
CCNC(=O)C[C@@H]1N=C(c2ccc(Cl)cc2)c2cc(OC)ccc2-n2c(C)nnc21 | 0.153 and 0.159 and 0.137 | 0.196 and 0.173 and 0.128
C=CCN(C1=NCCN1)c1c(Cl)cccc1Cl | 0.832 | 0.787
O=P(O)(NCCCl)NCCCl | 1.02 | 1.08
O=C1C[C@@H]2OCC=C3CN4CC[C@]56c7ccccc7N1[C@H]5[C@H]2[C@H]3C[C@H]46 | 0.981 and 0.867 and 0.844 | 0.831 and 0.943 and 0.963
N#Cc1nn(-c2c(Cl)cc(C(F)(F)F)cc2Cl)c(N)c1[S+]([O-])C(F)(F)F (stereo not given) | 0.855 | 0.843
CC[C@@]1(O)C(=O)OCc2c1cc1n(c2=O)Cc2cc3ccccc3nc2-1 | 0.767 | 0.821
CC1(N2CCC(n3c(C4CCCNC4)nc4ccccc43)CC2)CCCCCCC1 (stereo not given) | 0.527 | 0.558
C[N+]1(C)CCc2cc3c(cc2C1C1OC(=O)c2c1ccc1c2OCO1)OCO3 (single isomer, unassigned; (-)) | 0.997 | 0.969
CNc1ccc(C(=O)CC(O)CCC(C)C2OC(=O)CC(O)CC(=O)CC(O)CC(O)CC(O)CC(O)CC3(O)CC(O)C(C(=O)OC)C(CC(O[C@@H]4O[C@H](C)[C@@H](O)[C@H](N)[C@@H]4O)/C=C/C=C/C=C/C=C/C=C/C=C/C=C/C2C)O3)cc1.COC(=O)C1C(O)CC2(O)CC(O)CC(O)CC(O)CC(O)CC(=O)CC(O)CC(=O)OC(C(C)CCC(O)CC(=O)c3ccc(N)cc3)C(C)/C=C/C=C/C=C/C=C/C=C/C=C/C=C/C(O[C@@H]3O[C@H](C)[C@@H](O)[C@H](N)[C@@H]3O)CC1O2 (stereo not given in full) | 0.541 | 0.777
